In publication PMC5700166:
The list shows a part of the results, in another mix than the full data. For some of these results: The list includes weakly bound sequences.

Columns and labels:
[1] = target: T1, GST-Nv-NF-kB (Cys allele) (UniProt E5G601); test: protein-binding microarray (PBM); details: PBM: ~300 nM protein, 6 mM HEPES pH 7.8, 80 mM KCl, 0.5 mM EDTA, 0.5 mM EGTA, 6% glycerol, 35 ng/ul poly-dIdC, 1% milk, 1 h, room temperature; high values mean tight binding; double strand, one strand shown
T1 sequence: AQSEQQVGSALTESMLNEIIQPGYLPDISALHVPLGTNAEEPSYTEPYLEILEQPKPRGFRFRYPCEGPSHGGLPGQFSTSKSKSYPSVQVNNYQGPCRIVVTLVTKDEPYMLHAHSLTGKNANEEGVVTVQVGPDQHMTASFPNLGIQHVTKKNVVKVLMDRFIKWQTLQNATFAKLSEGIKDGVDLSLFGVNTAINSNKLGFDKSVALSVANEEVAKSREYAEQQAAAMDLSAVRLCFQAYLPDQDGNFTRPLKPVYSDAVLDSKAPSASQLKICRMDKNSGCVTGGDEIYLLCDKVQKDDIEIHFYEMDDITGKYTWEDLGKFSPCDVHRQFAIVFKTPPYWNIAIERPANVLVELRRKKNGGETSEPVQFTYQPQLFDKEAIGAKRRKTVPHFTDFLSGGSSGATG

GST-Co-NF-kB = target: T2, GST-Co-NF-kB (UniProt F1ARL5); test: protein-binding microarray (PBM); details: PBM: ~300 nM protein, 6 mM HEPES pH 7.8, 80 mM KCl, 0.5 mM EDTA, 0.5 mM EGTA, 6% glycerol, 35 ng/ul poly-dIdC, 1% milk, 1 h, room temperature; Ap Aiptasia and Nv Nematostella (sea anemones) / Co Capsaspora / Aq Amphimedon (sponge) / Dm Drosophila / Hu human; RHD is the Rel homology domain; high values mean tight binding; most listed sequences are background and not binding sites; double strand, one strand shown
T2 sequence: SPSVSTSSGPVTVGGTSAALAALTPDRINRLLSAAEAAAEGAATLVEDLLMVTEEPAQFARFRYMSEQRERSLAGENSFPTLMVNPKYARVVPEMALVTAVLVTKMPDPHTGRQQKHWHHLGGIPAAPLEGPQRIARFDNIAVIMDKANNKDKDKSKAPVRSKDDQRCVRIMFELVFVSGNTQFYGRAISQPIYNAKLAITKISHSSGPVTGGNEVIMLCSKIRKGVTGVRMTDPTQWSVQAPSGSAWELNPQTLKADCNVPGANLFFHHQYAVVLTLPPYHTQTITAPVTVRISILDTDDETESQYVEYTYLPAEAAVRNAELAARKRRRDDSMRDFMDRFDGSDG

| Sequence | binding signal [1] [z-score] | binding signal (GST-Co-NF-kB) [z-score] |
| --- | --- | --- |
| CCGATTAACATCACGGGTTTCCCTGATGTTAATCGGGTCTTGATTCGCTTGACGCTGCTG | 4.58 | – |
| CCGATTAACATCAGGGGAACACCTGATGTTAATCGGGTCTTGATTCGCTTGACGCTGCTG | 6.62 | 5.77 |
| CCGATTAACATCAGGAATAACCCTGATGTTAATCGGGTCTTGATTCGCTTGACGCTGCTG | 2.62 | 0.267 |
| CCGATTAACATCAGGGAATTTCATGATGTTAATCGGGTCTTGATTCGCTTGACGCTGCTG | 7.17 | 3.61 |
| CCGATTAACATCACCCAACCCCCTGATGTTAATCGGGTCTTGATTCGCTTGACGCTGCTG | 2.94 | 2.21 |
| CCGATTAACATCAGGACAGTCCCTGATGTTAATCGGGTCTTGATTCGCTTGACGCTGCTG | 5.23 | 0.841 |
| CCGATTAACATCAAAATTACCCATGATGTTAATCGGGTCTTGATTCGCTTGACGCTGCTG | 4.69 | 2.84 |
| CCGATTAACATCAGGGATTTTGATGATGTTAATCGGGTCTTGATTCGCTTGACGCTGCTG | 2.95 | 0.653 |
| CCGATTAACATCAAAACAACCCCTGATGTTAATCGGGTCTTGATTCGCTTGACGCTGCTG | 3.44 | 2.54 |
| CCGATTAACATCACCCGGGAAAATGATGTTAATCGGGTCTTGATTCGCTTGACGCTGCTG | 3.28 | 5.18 |
| CCGATTAACATCAAGAGATTCCCTGATGTTAATCGGGTCTTGATTCGCTTGACGCTGCTG | 3.88 | 2.46 |
| CCGATTAACATCAACAAAATCCCTGATGTTAATCGGGTCTTGATTCGCTTGACGCTGCTG | 3.64 | 1.89 |
| CCGATTAACATCAGGGGATGTTATGATGTTAATCGGGTCTTGATTCGCTTGACGCTGCTG | 6.43 | 3.17 |
